# Data taken from the supplement of paper PMC11417369.
# ± gives the standard deviation of the averaged measurements. The list shows a part of the results.
# Tested on: PfAP2-LT AP2 domain (GST-tagged)
# Assay: gcPBM binding intensity (ln(normalized median fluorescence intensity)); higher = stronger DNA binding
# How it was run: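 Binding intensity values are the highest Masliner-normalised natural-log median intensity among replicate spots of either probe orientation. The binding step lasted 1 h in 1× PBS with 1% milk, 0.2 mg/ml BSA, 0.5% salmon testes DNA and 0.03% Triton X-100, using GST-tagged P. falciparum DNA-binding domains expressed in E. coli on an Agilent 4 × 180k array of primer-extended double-stranded 36-bp intergenic genomic probes plus negative controls. Alexa488 anti-GST antibody and a 488 nm scan detected bound protein.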
row,Sequence,gcPBM binding intensity (ln)
1,AGTGTGTGTAATAAAGTGCATTAAAAATGACACGTA,9.65 ± 0.22
2,ACCCACTTTTGAGGTGTGCACAATAAATTGGACATT,9.01 ± 0.35
3,ATATATATTTAAACTACACACGCATATCTTAGAAAT [CACACA_site8348],8.96 ± 0.35
4,TAAGAGATATTTTATTAAATGTTTTATGAATCATGT [TGCATGCA_negctrl_site264],8.38 ± 0.38
5,AGGAAAAAAAAAATGACACACATATTTGAATTAAAA [CACACA_site1352],8.82 ± 0.55
6,TATTAATAAAAGCATTGTACAGTAATAAATAAATAA [XGTACX_site2924],8.69 ± 0.42
7,TATATATATAAACACACACACACCAAAGCGTAGCGC [CACACA_site7903],9.8 ± 0.17
8,AGCCATTAATTCTCTACACACCTTTATGTTATTTAG [CACACA_site3635],9.15 ± 0.4
9,ATATTAAAATGAAAATATAAAAAAAAAAAAAAAAAA [CACACA_negctrl_site1559],8.21 ± 0.48
10,CAATCAAATAGACACACACACACCTAAACATAAAAG [CACACA_site7322],10.2 ± 0.4
11,AAGGAAATATAATATACACACATAAGTGTACTTCTA [CACACA_site6079],9.04 ± 0.3
12,TTGTATTCATAACAACGTACATATTTTGTAACTAAA [XGTACX_site4029],8.48 ± 0.34
13,TTTCAAACAAAAAGACGTACACTGAAGTTATCCGTC [XGTACX_site8824],8.62 ± 0.52
14,AAATTCATATGAATTTGTACGGACATAAATATCTTC [XGTACX_site1838],8.85 ± 0.35
15,TGTATGTTTATTTGATGTACGGTCATACATATAAAT [XGTACX_site5176],8.82 ± 0.42
16,CTATTTTTTGTATAAACATGCATATAGTAGATATGG [TGCATGCA_site670],8.63 ± 0.41
17,TTTAATATTTTTTTTTGTACTTATTTGTAGAAATAT [XGTACX_site3046],8.49 ± 0.54
18,AGGCTCATTTTTTTTAGTACATCAAAAAAAAAAAAA [TGCATGCA_negctrl_site591],8.18 ± 0.39
19,CGCATGTATTTTGTGTGTACTAATTATAATCAACTT [XGTACX_site4709],9.03 ± 0.29
20,TTTTACATATACATGTGTACATAACAAAGAATGTTT [XGTACX_site2406],8.78 ± 0.42
21,TAATATTGTATTTATGTACACACATTTTTGGAATAT [CACACA_site8371],9.06 ± 0.42
22,TTTTTTAATAAATGGTGTACATATTTTTTTTATACT [XGTACX_site8584],8.62 ± 0.47
23,AGTGTATTAATTCTCACACACTAAGAAAAAAAAAAA [CACACA_site6007],8.89 ± 0.43

row,Sequence,gcPBM binding intensity (ln)
1,ATTCATAATATTATAACACACGCTTATTACATAAAG [CACACA_site980],8.79 ± 0.37
2,ATATATATATATATGTGTACATATGTATATATATCT [XGTACX_site2930],9.37 ± 0.32
3,AGATGGAGAAAGTTATGTACACATATATAAATATGT [XGTACX_site6150],8.86 ± 0.44
4,CCCATGTAATGAACATGTACATAATAATTTATAAAT [XGTACX_site8687],8.85 ± 0.32
5,TATATACATATGTGATGTACATTTTTTGTAATATAA [XGTACX_site6985],8.61 ± 0.38
6,TAACACATATATTGTTGTACATTCAAACTGAAAAAT [XGTACX_site5565],8.74 ± 0.37
7,TTTTTTTTATTAAAAAGTACTAAACAAATTATATAT [XGTACX_site121],8.1 ± 0.52
8,CCATAACTCATATGCACACATAAATATTACATATAT [CACACA_site3821],9.22 ± 0.49
9,TTTTAAAAAGAAAAAAATAACATACATATATATATA [CACACA_negctrl_site240],8.66 ± 0.29
10,ATTTTTTTTTTTTTTTTTTTTGAGAAGAACTTTTTC [CACACA_negctrl_site1019],8.3 ± 0.58
11,ATGTCTACAGTTTTTGCACACATATAAATAAAAAAA [CACACA_site3600],8.93 ± 0.39
12,AAACATCATAAATATACACACATATTTATATTTATA [CACACA_site6437],8.95 ± 0.4
13,CAAAATAAAAAATTCACACACATATAAATATAAATA [CACACA_site7065],9.12 ± 0.43
14,AAAAAAAAAGGTACTACACACTATTATCAATAGAAA [CACACA_site91],8.82 ± 0.49
15,TACTTATTATGAAACACACACCAAAACTACAGAATA [CACACA_site6265],9.24 ± 0.27
16,ATATATATATGTATATGTACATATATATACACATAT [XGTACX_site140],9.1 ± 0.28
17,TAAATATATTTATATTGTACATTTATGTTGATACCA [XGTACX_site228],8.61 ± 0.43
18,TATATATATAATATATGTACTGATATGCTATTTACT [XGTACX_site841],8.86 ± 0.42
19,ATATTTACCACTGTATGTACATATATAAAATATATC [XGTACX_site6373],8.91 ± 0.35
20,TTTTGTGAATTTTAGATTTTTTAATACAAGAATATT [CACACA_negctrl_site606],8.16 ± 0.48
21,ATTTAATTTATTATGTGTACTTATTTAATTAAATTA [XGTACX_site3171],8.58 ± 0.44
22,CTGATATATAGATGTAGTACATAAAAATGACGAATT [XGTACX_site5612],8.99 ± 0.47
23,TTATATATTTATAAATGTACATATAATTTTTTTATA [XGTACX_site4696],8.4 ± 0.44

row,Sequence,gcPBM binding intensity (ln)
1,CATATAATTATTGAAAGTACATACAAATAAAAAGAT [XGTACX_site6535],9.06 ± 0.44
2,ATATTTTTATTTAAATCACATCATTTTGTTTATTTG [CACACA_negctrl_site1056],8.74 ± 0.54
3,AAAAAAATAAAATGTTCACACATTTCACAATTACTT [CACACA_site4859],8.81 ± 0.51
4,TGAGCACAAATACAGGTGCATATAAAATATATGACG,9.04 ± 0.49
5,AGAGGCCAGCTTTCTCTTCTAAACATGTACAAAAAT [GTGCAC_negctrl_site98],8.57 ± 0.47
6,TATATATAAAACATATGTACATATATATATATATAT [XGTACX_site419],9.31 ± 0.54
7,AATAGTTAAATGTACACACTAACTACATGGAATATA [CACACA_site3262],9.03 ± 0.4
8,ACATGAAACTATAAACGTACATACATACATATATAT [XGTACX_site5011],9.14 ± 0.3
9,ATATTTTATAATTTTACACACCATATAAAATAATTC [CACACA_site2797],8.71 ± 0.47
10,AAGTAAAAAAATAGCACACACACAAAAACACCCACA [CACACA_site1291],9.92 ± 0.16
11,ATATATATATAGTGCACACATATAAAATATATATAA [CACACA_site2745],9.24 ± 0.32
12,TTTACAGATACTTGCTCACACATATGTATAAAAATA [CACACA_site4928],8.68 ± 0.33
13,TATAATATATATAGGAGTACGTATGTATATTTATAA [XGTACX_site3521],8.87 ± 0.37
14,CACTAATAGTGGATTACACACATATATATGTATATA [CACACA_site2531],9.01 ± 0.35
15,CGCGAAGTAGCATTCACACACAGCAAAATATATATA [CACACA_site3495],9.36 ± 0.52
16,ACTTACACATTTATTACACACATAAAGGAAAATTTT [CACACA_site1356],8.99 ± 0.42
17,ATATTTAAATGGATCACACATATATATATATATATA [CACACA_site5255],9.66 ± 0.11
18,TTAAAAAATAACAAGGTGCAAATAGGTTTATAAAAT,8.94 ± 0.52
19,TTTTTAACATTTAAATGTACATGTTACAATTTAAAG [XGTACX_site8789],8.34 ± 0.39
20,TACTAAAACCCATACACACACATATATATAGTACCA [CACACA_site3184],9.56 ± 0.26
21,ACAGCATAATCATGCTGTACATTATTTTCTTAAGTA [XGTACX_site8456],8.47 ± 0.39
22,TTTTTATTTTTATACATATAATATATTATGATTAAA [CACACA_negctrl_site214],8.28 ± 0.51
23,AGAGACTTAGAAAACACACATACATAAGATAATTTA [CACACA_site2377],8.96 ± 0.47

row,Sequence,gcPBM binding intensity (ln)
1,TGCAAAAAATTCCACACACACACACGCATATAAATA [CACACA_site6696],10 ± 0.3
2,AAAATAGCTGTATAGAGTACATATAAATAATGTTGT [XGTACX_site5692],8.93 ± 0.45
3,TAAAATAAAAGTGAAACACACAGTATTTTACAACAT [CACACA_site3811],8.89 ± 0.53
4,CATTTTTCTATATGTGCATGTAAGATAAGAATAATT [TGCATGCA_site107],8.48 ± 0.3
5,TCATATAATATTTATATGCACACTTTTCTATATATA [CACACA_site4075],8.98 ± 0.38
6,TTTCGTCATTTTGTTTTTAATTCTACAATTTAGTTA [XGTACX_negctrl_site286],8.7 ± 0.47
7,TTTTGAAGAAAATTCTTTTTTTTTTTTTTTTGTAAA [CACACA_negctrl_site102],7.76 ± 0.65
8,CCACTTTTTGAAGACACACACAAAAAAAAAAAAAAA [CACACA_site2551],8.79 ± 0.41
9,ATATAATGACAAGTATAAGTATCACAAAGAAATAAA [CACACA_negctrl_site1403],8.85 ± 0.55
10,ATAACAATTATTTGTCGACACACGTATATGTTATTT [CACACA_site1766],9.41 ± 0.38
11,CAAGCTTTTTCCTTTACACACATTAATTATATATAT [CACACA_site1423],9.12 ± 0.33
12,TATATTAAACTTTGCACACATAATTTAACTACAAAG [CACACA_site3441],8.97 ± 0.4
13,AATCATTTATTGATGGTGCAATATACCATCTAATGA [GTGCAC_site9440],8.49 ± 0.41
14,ATATATATATATATATGTACTTAAAAAATATATACA [XGTACX_site8952],9.065 ± 0.0071
15,AAAAAAAAAAAAAAAAAAAAAAAAAAAATACGAAAG [GTGCAC_negctrl_site729],8.74 ± 0.4
16,CTTTTTAATTAATACACACACACACGGATATAAATA [CACACA_site7145],9.63 ± 0.16
17,TATTTTTTTTGTGTGTGTCCTCATGTAATACTGCAA [XGTACX_site1380],9.36 ± 0.56
18,CATAATACATATAACACACACAATTATACATAAAAT [CACACA_site3233],9.56 ± 0.36
19,AAAAAAAAAAAACACACACACACACCCAAATATATA [CACACA_site150],10.22 ± 0.028
20,TAAAAATGGAAACACACACACATAAATATATTTTAT [CACACA_site2513],9.71 ± 0.25
